In all, about 240,000 compounds went through this assay and about 20 (0.008%) were called active. Inconclusive results, whose numbers are uncertain, are shown with a selection of clear calls. Calls come from the whole dose curve; as a rule, active = well fitted inhibition curve with a large enough effect; inconclusive = small, poorly fitted or top-dose-only effect, or effect the other way; inactive = flat fitted curve, though single readings scatter. No potency is given beside an inconclusive call; the fits are too rough.
biological target: Alpha-galactosidase A (Homo sapiens) (UniProt P06280); experiment: qHTS Assay for Inhibitors and Activators of Human alpha-Galactosidase From Spleen Homogenate; details: 4MU-alpha-Gal fluorescence, 40 min; activity change, negative = inhibition: at 80 µM (top of the series);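 for activity change, negative = inhibition: 0% = enzyme with vehicle and -100% = no enzyme basal signal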
Chain of UniProt P06280 (P06280 whole entry, looked up): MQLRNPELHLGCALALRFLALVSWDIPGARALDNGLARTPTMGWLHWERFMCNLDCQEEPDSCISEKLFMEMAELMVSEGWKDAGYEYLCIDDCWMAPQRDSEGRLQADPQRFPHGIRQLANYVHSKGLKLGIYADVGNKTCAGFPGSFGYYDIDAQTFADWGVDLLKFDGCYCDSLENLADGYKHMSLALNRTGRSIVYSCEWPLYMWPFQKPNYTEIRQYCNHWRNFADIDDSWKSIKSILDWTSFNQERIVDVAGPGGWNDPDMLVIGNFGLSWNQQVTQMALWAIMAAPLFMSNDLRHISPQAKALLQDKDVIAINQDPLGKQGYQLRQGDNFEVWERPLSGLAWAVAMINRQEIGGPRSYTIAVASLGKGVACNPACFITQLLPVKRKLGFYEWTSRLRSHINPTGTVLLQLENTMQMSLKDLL
Method in brief: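 qHTS titration in buffer at pH 5.0. Alpha-galactosidase activity in spleen homogenate was measured via 4-methylumbelliferone release from 1 mM fluorogenic substrate after 40 min at 37C and a pH 10 stop. AC50 came from Hill fits of control-normalized data.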
Potency is the fitted concentration of half-maximal effect; tags give direction and shape of the fitted curve.

Compound	Potency	activity change, negative = inhibition
CC(=O)Nc1ccc(S(=O)(=O)c2c(N)n(CCN3CCOCC3)c3nc4ccccc4nc23)cc1	inconclusive [activator, partial curve]	–
CCOC(=O)n1c(=O)n(Cc2cccc(F)c2)c2ccccc21	inconclusive [inhibitor, single point]	–
Nc1nnc(SCC(=O)NCCOc2ccccc2)s1	inconclusive [activator, single point]	–
CN1CCc2c(sc(/N=C/c3ccco3)c2C(N)=O)C1	inconclusive [activator, partial curve]	–
CC1(C)O[C@H]2OC([C@H](O)CON3C(=O)c4ccccc4C3=O)[C@H](O)[C@H]2O1 (stereo partly specified)	inactive	–
Fc1ccc(Nc2ncnc3sc4c(c23)CCC4)cc1	inactive	–
CCCCCn1c(-c2ccco2)nc2nc3ccccc3nc21	inconclusive [activator, partial curve]	–
NC(=S)c1cc2ccc(O)cc2oc1=O	inconclusive [activator, partial curve]	–
CC1(C)CC(=O)C=C(NNC(=O)c2cccnc2)C1	inconclusive [inhibitor, single point]	–
CC(NCC(O)COc1ccc(S(=O)(=O)N2CCOCC2)cc1)c1ccccc1 (stereo unspecified)	inactive	–
Cc1ccc([N+](=O)[O-])cc1S(=O)(=O)N(C(=O)c1ccncc1)c1ccc2oc3c(c2c1)CCCC3	inactive	–
Cc1cccc(-n2nnnc2SC(C)C(=O)NCCC2=CCCCC2)c1 (stereo unspecified)	inactive	–
CCCCNc1nc(C)nc2c1nc(-c1ccccc1)n2CCCN(C)C	inactive	–
COc1ccc(CCNC(=O)CSc2nc(C)nc3c2c(=O)n(C)c(=O)n3C)cc1OC	inconclusive [inhibitor, partial curve]	–
COc1ccc(CCn2c(N)c(C(=O)NCc3ccco3)c3nc4ccccc4nc32)cc1OC	inconclusive [activator, single point]	–
Cc1ccc(-c2ccc(CCC(=O)O)n2CC2CCCO2)cc1 (stereo unspecified)	inconclusive [activator, partial curve]	–
COc1ccc(-c2cc(-c3ccccc3)c(C#N)c(S(C)=O)n2)cc1 (stereo unspecified)	inconclusive [activator, partial curve]	–
O=C(COC(=O)c1ccccc1NCc1ccco1)Nc1ccc2c(c1)OCO2	inconclusive [activator, single point]	–
CC[C@@H]1Cc2cc(O)ccc2C2=C1c1ccc(O)cc1C[C@H]2CC	inconclusive [activator, partial curve]	–
COc1ccc(-c2cc3ccc(OCc4nn[nH]n4)cc3oc2=O)cc1	inconclusive [activator, partial curve]	–
CCC(=O)Oc1ccc2c(C)c(Cl)c(=O)oc2c1	inconclusive [activator, partial curve]	–

Compound	Potency	activity change, negative = inhibition
O=c1oc2ccccc2cc1-c1nc2ccccc2o1	inconclusive [activator, partial curve]	–
COc1ccc(-c2nc3c(c4c2C[C@H](c2ccccc2)OC4)CN(C(=O)NCc2ccco2)CC3)c(C)c1	–	inactive: 1.07% [at 17.5 µM]
O=C(COC(=O)c1ccccc1SCC(=O)NC1CCS(=O)(=O)C1)NC1CCS(=O)(=O)C1 (stereo unspecified)	inconclusive [activator, single point]	–
O=C(CCc1nc2ccccc2c(=O)[nH]1)NCc1ccccn1	inconclusive [inhibitor, single point]	–
Cc1sc(NC(=O)CCCC(=O)O)c(C#N)c1C	inactive	–
CNc1oc(-c2cccc3ccccc23)nc1C#N	inconclusive [activator, single point]	–
O=C(/C=C/c1ccc(Cl)cc1)NC(=S)Nc1ccc(NC(=O)c2ccco2)cc1	inactive	–
COc1ccccc1CNc1n[nH]c(NCc2ccccc2OC)n1	inactive	–
CCNc1nc(N)nc(Oc2ccc(C(=O)OC)cc2)n1	inconclusive [inhibitor, single point]	–
CC(C)OCCCn1c(-c2ccco2)nc2nc3ccccc3nc21	inconclusive [activator, partial curve]	–
COc1ccc(-n2c(N)c(C(=O)NCC3CCCO3)c3nc4ccccc4nc32)c(OC)c1 (stereo unspecified)	inconclusive [activator, partial curve]	–
Cc1ccc(N=c2ssnc2Cl)cc1	inconclusive [activator, single point]	–
CC(NC(=S)NCCc1ccccc1)C(c1cccs1)N1CCN(C)CC1 (stereo unspecified)	inactive	–
CC1CCN(C(=O)COC(=O)c2cc(Cl)cc(Cl)c2N)CC1	inconclusive [activator, partial curve]	–
Oc1ccc(Br)cc1-c1nc2cnccn2c1NC1CCCC1	inactive	–
Cc1oc2cc(O)ccc2c(=O)c1Oc1ccccc1Br	inconclusive [activator, single point]	–
Cc1cccn2c(=O)c(/C=C(\C#N)C(=O)NC3CCS(=O)(=O)C3)c(N3CCC(C(N)=O)CC3)nc12 (stereo unspecified)	inconclusive [activator, single point]	–
Cc1noc(C)c1-c1cncnc1NCc1cccnc1	inactive	–
CC(C)Oc1ccc(N2CC(C(=O)Nc3ccc(N4CCOCC4)cc3)CC2=O)cc1 (stereo unspecified)	inconclusive [inhibitor, single point]	–
Cc1ccc(S(=O)(=O)c2c(N)n(CC3CCOC3)c3nc4ccccc4nc23)cc1 (stereo unspecified)	inconclusive [activator, single point]	–
